The whole screen tested about 390,000 compounds, of which about 930 (0.24%) were called active. Inconclusive results, whose numbers are uncertain, are shown with a selection of clear calls. The call rests on the fitted dose curve; in most records, active means well fitted activation curve with a large enough effect; inconclusive means small, poorly fitted or top-dose-only effect; inactive means no such curve, though single readings can be large or run the other way. Potencies beside an inconclusive call are fits to weak or partial responses and may not hold up.
Experiment: qHTS for Suppressors of FUS Proteinopathy: Primary screen using FUS-linked yeast assay; further: nearly all actives have a fitted effect of over 55% in size;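 on growth rescue (activation): plate controls were DMSO vehicle for no effect and reference control for full effect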
Conditions: S. cerevisiae FUS-expressing, OD600, 24 h; Potency: growth rescue; growth rescue (activation): at 76.6 µM (top of the series)
Outline: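 Quantitative HTS measuring growth restoration of FUS-toxic yeast. Galactose-induced cells (OD 0.005) were exposed 24hr at 30C to compounds at several concentrations, then absorbance at 600 nm was recorded.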
Potency means the concentration at half of the fitted maximal effect; tags describe the fitted curve by direction and shape.

| SMILES | Potency | growth rescue (activation) |
| --- | --- | --- |
| COc1ccc(CNC(=O)c2ccc3nc(C(C)C)oc3c2)cc1OC | inconclusive: 35.5 µM [activator, single point] |  |
| COc1cc(CCN(C(C)=O)C2C(=O)Nc3ccccc3N=C2c2ccc3c(c2)OCO3)cc(OC)c1 (configuration not stated) | inconclusive: 25.1 µM [activator, partial curve, poor fit] |  |
| O=C(NCCCc1ccccc1)[C@H](Cc1c[nH]c2ccccc12)NC1(C(=O)NCCc2c[nH]c3ccccc23)CCC1 | inconclusive: 15.8 µM [activator, partial curve, poor fit] |  |
| COc1ccc(-c2ccc([C@H]3[C@@H]4C=CCC[C@@]4(C)C(=O)N3Cc3ccccc3)c(F)c2)cc1OC | inconclusive: 28.2 µM [activator, single point] |  |
| CCN1C[C@@H]2[C@@H]3C(=O)N(C)C(=O)[C@@H]3[C@](Cc3ccccc3)(C1=O)N2C(=O)c1ccc(Cl)cc1 | inconclusive: 35.5 µM [activator, single point] |  |
| O=C(CSc1nnc(Cc2ccccc2)n1Cc1ccco1)NC12CC3CC(CC(C3)C1)C2 | inconclusive: 50.1 µM [activator, single point] |  |
| C=CCN1C(=O)[C@@H](CC(=O)N2CCCC2)[C@]2(C(=O)OC)CCCCC=C12 |  | inactive: -10.1% |
| O=C1CC(O)(c2ccccc2)C(c2ccccc2)=C1c1ccccc1 (configuration not stated) | inconclusive: 39.8 µM [activator, single point] |  |
| CSCCC(NC(=O)/C(=C/c1ccco1)NC(=O)c1ccco1)C(=O)O (configuration not stated) |  | inconclusive: -98.7% [activator] |
| COc1ccc(NC(=O)N(C)C[C@H]2Oc3ccc(NC(=O)Nc4ccc5c(c4)OCO5)cc3C(=O)N([C@H](C)CO)C[C@@H]2C)cc1 | inconclusive: 28.2 µM [activator, single point] |  |
| COc1ccc(C(=O)NCCn2cc(SC(C)c3ccccc3)c3ccccc32)cc1OC (configuration not stated) | inconclusive: 50.1 µM [activator, single point] |  |
| CCOc1ccc(NC(=O)CCCN2C(=S)NC(C)(C)CC2C)cc1 (configuration not stated) |  | inactive: 11.9% |
| Cc1cc(C)c(S(=O)(=O)Nc2ccc(-c3ccc(N4CCCCCC4)nn3)cc2)cc1C | inconclusive: 35.5 µM [activator, single point] |  |
| O=C(Nc1ccc2ccccc2c1)NC1CCCCN(Cc2ccc(Cl)cc2)C1=O (configuration not stated) |  | inactive: -11% |
| OCCC1CN(Cc2ccccc2O)CCN1CCCc1ccccc1 (configuration not stated) | inconclusive: 3.98 µM [activator, full curve, poor fit] |  |
| Cn1c(SCc2cccc(F)c2)nnc1-c1cnccn1 |  | inactive: -14.2% |
| COc1ccc(-c2coc3c(C(=O)Nc4cccc(NS(C)(=O)=O)c4)cccc23)c(C)c1 | inconclusive: 44.7 µM [activator, single point] |  |
| C=CCN(C(=O)[C@@H](C1CC1)[C@@H](O)c1ccc2ccccc2c1)c1ccccc1 | inconclusive: 14.1 µM [activator, partial curve] |  |
| COc1ccc(-n2c(C)cc(/C=C3\C(=O)NN(c4ccccc4)C3=O)c2C)cc1 | inconclusive: 8.91 µM [activator, partial curve, poor fit] |  |

| SMILES | Potency | growth rescue (activation) |
| --- | --- | --- |
| CC(C)CC(NC(=O)OC(C)(C)C)c1cn([C@@H](Cc2ccc(O)cc2)C(=O)N2CCN(C(=O)OC(C)(C)C)CC2)nn1 (some centres not stated) | inconclusive: 12.6 µM [activator, partial curve, poor fit] |  |
| CC(C)C[C@H](NC(=O)[C@@H]1Cc2c([nH]c3ccccc23)C2c3ccccc3C(=O)N21)C(=O)NCC1CCCO1 (some centres not stated) | inconclusive: 28.2 µM [activator, single point] |  |
| CS(=O)(=O)n1nc(-c2ccc(Cl)cc2)nc1SCc1ccccc1 |  | inconclusive: 75.1% [activator] |
| CCOc1cc(-c2ccc(OC(=O)c3ccc(C)cc3)c(OC)c2)cc(=O)c2c(C)oc(C)c12 | inconclusive: 28.2 µM [activator, partial curve, poor fit] |  |
| Nc1c(C(=O)Nc2ccc(S(=O)(=O)N3CCCC3)cc2)sc2nc3cc4c(cc3cc12)CCC4 | inconclusive: 35.5 µM [activator, partial curve, poor fit] |  |
| CCCN(CCC)C(=O)CSc1nc2n[nH]c(C)c2c(=N)n1-c1ccc(OC)cc1 | inconclusive: 39.8 µM [activator, single point] |  |
| Cc1ccc(NCc2cccn2-c2nnc(N3CCC(C(=O)NCCC(C)C)CC3)s2)cc1 | inconclusive: 25.1 µM [activator, single point] |  |
| O=C1N=C(N2CCN(c3ccccc3)CC2)S/C1=C/c1cccs1 | inconclusive: 50.1 µM [activator, single point] |  |
| COc1cccc(-c2nn(C)c3sc(C(=O)NCc4ccco4)cc23)c1 |  | inconclusive: 106% [activator] |
| CCN1C(=O)C(CC(=O)Nc2ccc(OC)cc2)N(CCc2ccccc2F)C1=S (configuration not stated) | inconclusive: 35.5 µM [activator, single point] |  |
| CCc1ccc(NC(=O)N(CCCN2CCOCC2)C(C)c2cc3cccc(OC)c3o2)cc1 (configuration not stated) | inconclusive: 1.26 µM [activator, full curve] |  |
| Cc1ccc(N(Cc2ccccc2)C(=O)c2cccc(S(=O)(=O)N3CC(C)OC(C)C3)c2)cc1 (configuration not stated) | active: 28.2 µM |  |
| CC(C)(C)c1ccc(C(=O)NCC(c2cccs2)S(=O)(=O)c2cccs2)cc1 (configuration not stated) | inconclusive: 35.5 µM [activator, partial curve, poor fit] |  |
| COCc1cc(OC)nc(-c2csc(C)n2)n1 |  | inactive: 3.83% |
| Cc1cc(C)cc(N(C(=O)c2ccccn2)C(C(=O)NC2CCCCC2)c2ccncc2)c1 (configuration not stated) | inconclusive: 11.2 µM [activator, partial curve, poor fit] |  |
| CCOc1cc(C(=O)Nc2ccc(-c3nc4ccccc4s3)cc2Cl)cc(OCC)c1OCC |  | inactive: -24.2% |
| CCN(CC(=O)NC(=O)NCc1ccccc1)CC(=O)Nc1cc(Cl)ccc1C | inconclusive: 0.891 µM [activator, full curve, poor fit] |  |
| C#CCOCCOCCOCCNc1nc(N2CCN(C(=O)CCCCCCCCCCNC(=O)Cn3cc(C[C@@H](C)O)nn3)CC2)nc(N2CCN(C(=O)CCCCCCCCCCNC(=O)[C@H](CCCCN)n3cc(C[C@@H](C)CC)nn3)CC2)n1 | active: 10 µM |  |

Reference: PubChem BioAssay AID1347120 (National Center for Advancing Translational Sciences (NCATS), 2019)
